No constants are given. Whether binding was seen depends on the method and setting. Binding seen in cells or lysates may run through a third protein. Some results given as binding are weak or reduced against the parent protein; the word gives no strength. Where a sequence is shown, tags or fusion partners need not be part of it.
Target: T1, HA-tagged R100S/R101E striatin (human) (UniProt O43815)
T1 sequence: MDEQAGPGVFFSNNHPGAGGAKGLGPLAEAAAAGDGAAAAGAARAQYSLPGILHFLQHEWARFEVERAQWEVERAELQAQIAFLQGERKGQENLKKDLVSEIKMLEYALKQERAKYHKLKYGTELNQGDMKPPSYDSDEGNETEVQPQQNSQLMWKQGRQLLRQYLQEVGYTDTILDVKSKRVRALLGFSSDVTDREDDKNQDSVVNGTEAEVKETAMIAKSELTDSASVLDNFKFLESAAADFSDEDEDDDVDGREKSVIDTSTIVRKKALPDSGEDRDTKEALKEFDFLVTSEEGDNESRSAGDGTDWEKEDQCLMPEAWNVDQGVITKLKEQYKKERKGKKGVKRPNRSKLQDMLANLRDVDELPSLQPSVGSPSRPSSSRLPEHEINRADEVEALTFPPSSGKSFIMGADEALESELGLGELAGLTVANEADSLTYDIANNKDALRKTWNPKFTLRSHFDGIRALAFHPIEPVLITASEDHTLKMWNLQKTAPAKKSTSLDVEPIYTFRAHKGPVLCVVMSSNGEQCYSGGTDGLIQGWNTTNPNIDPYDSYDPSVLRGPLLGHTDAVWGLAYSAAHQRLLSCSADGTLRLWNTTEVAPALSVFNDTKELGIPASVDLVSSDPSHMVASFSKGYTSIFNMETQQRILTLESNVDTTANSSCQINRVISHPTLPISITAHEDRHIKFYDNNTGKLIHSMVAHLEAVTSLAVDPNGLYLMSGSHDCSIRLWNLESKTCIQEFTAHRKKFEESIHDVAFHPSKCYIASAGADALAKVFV
Assay: co-IP; anti-HA immunoprecipitates (12CA5 with protein A-Sepharose, or F7 anti-HA-agarose when probing for Mst3 or Mst4; 1.5 h, 4°C) of lysates (1% Nonidet P-40, 0.135 M NaCl, 10% glycerol, 20 mM Tris pH 8.0) of HEK293 cells transfected with HA-striatins; endogenous partners by immunoblot, partner/HA-striatin ratio by chemilumimager against wild type; 50 mM NaF and 100 nM okadaic acid in the lysis buffer in the phosphorylation experiments

- binding: binds
B1: Mob3/phocein (protein, UniProt Q9Y3A3 1-225)
chain: MVMAEGTAVLRRNRPGTKAQDFYNWPDESFDEMDSTLAVQQYIQQNIRADCSNIDKILEPPEGQDEGVWKYEHLRQFCLELNGLAVKLQSECHPDTCTQMTATEQWIFLCAAHKTPKECPAIDYTRHTLDGAACLLNSNKYFPSRVSIKESSVAKLGSVCRRIYRIFSHAYFHHRQIFDEYENETFLCHRFTKFVMKYNLMSKDNLIVPILEEEVQNSVSGESEA

Source: PMC3217859
